Experimental findings from article PMC12136788 are described below.

B1: chr1:233671823:233671924:+|3pUTR|ENSG00000135750|msi1|total|mutant (ssRNA)
RNA: GGGAGUUCUACAGUCCGACGAUCUGCUGCUGUGGUCCGAAGCAGAUUUUAUACUUUUAACUGGAAACUUUGGGGUUUGCAUUCCGAUCAUUCCGCUGAUGGCUAAACCGCAAAAUUUAUAUUCCGAAGCAAAAAAAAAAAGCACAACAGAGGAUUGAGCAUCA
B2: chr15:90998672:90999054:-|three_prime_utr|ENSG00000184056|control|control|control (ssRNA)
RNA: GGGAGUUCUACAGUCCGACGAUCAUAACCAAGUGUCCACCAACUACCUGCUAAGAGCCGGGAGCAUGGAACGUGUUGGGAUUUAGAGAACAUUAUCUGAGAAAAGAGUUCACUUCCUGCUCCCAGGAUAUUUCUCUUUUCUGUCAACAGAGGAUUGAGCAUCA
B3: chr17:30248266:30248367:-|3pUTR|ENSG00000108578|msi1|total|mutant (ssRNA)
RNA: GGGAGUUCUACAGUCCGACGAUCUUGGGUGAGAACAACCAAAAUCUUAUCAUGGUCUCAGUCAUAAUCAUCCGGGGGAACUCCCGCCAAAUGGUUUAACUUCUGCCUGUGGAACUGGGGAUUGGGUGGGCAGGAAAAGGUGAUCAACAGAGGAUUGAGCAUCA
B4: ENSG00000124225:stop:overlap|stop_codon|ENSG00000124225|stop_codon|NA|stop_codon (ssRNA)
RNA: GGGAGUUCUACAGUCCGACGAUCCCCUAGAGAGCGCAGCCAUCUGGAGCAAAGAGAAGGAUAAACAGAAAGGACACCCUCUCUAGGGUCCCCAGGGGGGCCGGGCUGGGGCUGCGUAGGUGAAAAGGCAGAACACUCCGCGCUCAACAGAGGAUUGAGCAUCA
B5: ENSG00000070961:be:win_5401|3pUTR|ENSG00000070961|bound_else_gene|NA|bound_elsewhere_windowed (ssRNA)
RNA: GGGAGUUCUACAGUCCGACGAUCCUAUAACUGAGAGUGCUGACCAAGCAAAGAAACAUUUAGUUGAUGGUGCUUGAUAUUUUUGGUGGGUGGGGGAAAUCUUUUUCUCACCAUCAAAUCUUUGCAGUAAUCCUCUGCAGGUCUCAACAGAGGAUUGAGCAUCA
B6: chr3:154315110:154315224:-|CDS|ENSG00000174953|unk|total|mutant (ssRNA)
RNA: GGGAGUUCUACAGUCCGACGAUCUCAGAGAACAAACUUGACAUCCAGGAAAAGAAGUUGAUAAAUCAAGAAAAAAAAAUGUUCCGAAUCAGGAACAGAUCAUAUAUUGACCGAGAUUCUGAGUAUCUCUUGCAAGAAAAUGAACAACAGAGGAUUGAGCAUCA
B7: chr19:1925605:1925706:+|3pUTR|ENSG00000227500|msi1|total|mutant (ssRNA)
RNA: GGGAGUUCUACAGUCCGACGAUCUUUGGACACCCCAGGCUGCCACCCCUCCCCACCCGUUCACCCCCAGGAUGCUGUUGCUGCCGGACGCCUGCUGCCCUGGAGCCCUCCCCAGGAUGUGAGCCAGUCCCCUCGCUGGUACGGCAACAGAGGAUUGAGCAUCA
B8: chr6:38153770:38153871:+|3pUTR|ENSG00000156639|msi1|total|mutant (ssRNA)
RNA: GGGAGUUCUACAGUCCGACGAUCGGUGGACAGGAUCAGGAUUCCCUUGAAAGCCCAGGCAGGGUGAGCAGUCCCAGUGGUCCCCGUGCCGCAUCAGAUCCAGGUGGGUGAGGGCAGGAGGCCCCUGCGGAGGCAGCGUGGAUCCAACAGAGGAUUGAGCAUCA
B9: chr2:60940222:60942394:-|three_prime_utr|ENSG00000162927|control|control|control (ssRNA)
RNA: GGGAGUUCUACAGUCCGACGAUCGUAACAUCUCAGGAUCUAUAUAUGUGUAUAUUUUGUGUUAAAUUGUUCCAAGGAUGUCUUAGGAUUUUUCUCAUUCCCUCUUUCACCCCCACAAACCAAACUAUGAAUAAUGAAAUAAUUCAACAGAGGAUUGAGCAUCA
B10: ENSG00000198589:be:win_4201|CDS|ENSG00000198589|bound_else_gene|NA|bound_elsewhere_windowed (ssRNA)
RNA: GGGAGUUCUACAGUCCGACGAUCGAAGCCUCUGUGACAUUUUUGCAGAGGCUAAUUAGCCUUGUGGAUGUGCUUAUAUUUGCAAGUUCUCUUGGCUUUACUGAAAUUGAAGCUGAAAAAAGUAUGUCAUCUGGAGGAAUUUUGCAACAGAGGAUUGAGCAUCA
B11: chr1:6522505:6522606:-|3pUTR|ENSG00000162408|msi1|total|mutant (ssRNA)
RNA: GGGAGUUCUACAGUCCGACGAUCCUGGGAUUACAGGCGUGAGCCACUGCGCCUGGCCUGAAGCUAUUCUUUACAAAAGCUCUCCGUUUUUGUUUGUUUGUUUGUUUUUUUCUUUUGCGACGGACUCUCUGUCGCCAAGGCUGGCAACAGAGGAUUGAGCAUCA
B12: chr2:30159184:30159288:+|3pUTR|ENSG00000119801|unk|total|mutant (ssRNA)
RNA: GGGAGUUCUACAGUCCGACGAUCAAAAUCUGGGCUGUCCGAGUGAAAAAGUGUGUUUUAUGUCAAUUGUGAAAGGAAAAUGUCCGGAGUAUGGUUUUUAAACUUGGGCUUCAUUUUAAACUUUUUUUUUUAAACCCAGUUAUUCAACAGAGGAUUGAGCAUCA
B13: chr19:4361374:4361475:-|3pUTR|ENSG00000141985|msi1|FALSE|unique (ssRNA)
RNA: GGGAGUUCUACAGUCCGACGAUCCAGGACCCCACACUUGGGUGGGGGGGCUUAUCUGGGUGGGUGGGGAUGCCUGUUUACACUAGCGCUGACUCCCAACGGUGACGGCUCCCUUCCCCACUCCAUGGCGCCAGCCUCCUCCCCCAACAGAGGAUUGAGCAUCA
B14: chr17:81557321:81557422:-|3pUTR|ENSG00000182446|msi1|total|mutant (ssRNA)
RNA: GGGAGUUCUACAGUCCGACGAUCAGCAUUUCCCUUACUCUGAAGUUCCGGCAUUCACAUCAUUCAUGUUUUCUUUUGUCUUUCCGCUAAAGGAAAAGCAUUGGCGAUUUGUCUGAUUCUGGUUUUGAGUUACUCUUUGUUCAGCAACAGAGGAUUGAGCAUCA
B15: chr6:105096826:105097152:-|3pUTR|ENSG00000112276|msi1|total|mutant (ssRNA)
RNA: GGGAGUUCUACAGUCCGACGAUCACUUGCAACCCCGUUUUAAAAUACAUGAGGAUUUUAUGAAAGCUUUAUACAGACAUUUACCGGAAACUCAUUCUUUGAUUUCCGGUGCCAUUUAAAUUGAUAACACUUACUUUAUAAAAACAACAGAGGAUUGAGCAUCA
B16: chr9:101424453:101424812:-|three_prime_utr|ENSG00000136872|control|control|control (ssRNA)
RNA: GGGAGUUCUACAGUCCGACGAUCGCUUGACUUUCCAACACGGAGAAGCAUUGUUUUCUUUGGGCCAAGAAGGUAUCUACCGAUAGUGUCUAUUAGGCAUUUGAAAAUGUGGCAGUAGAGGUCAGUAUGAGGAUUGAGGCUAGACAACAGAGGAUUGAGCAUCA
B17: chr1:36287001:36287112:+|CDS|ENSG00000054118|unk|total|mutant (ssRNA)
RNA: GGGAGUUCUACAGUCCGACGAUCCCCCUCCAGUCUGUGGUGGUGAGGCGGCGGUCACCCCGUCCCCGCCCCGUGCCAAAACCCCGUCCUCCACUUUCCAGCACAUCCCAGAUGGGCUCAACUCUGCCGAGUGGUGCCGGGUAUCAACAGAGGAUUGAGCAUCA
B18: chr2:216675988:216676089:-|3pUTR|ENSG00000115461|msi1|FALSE|unique (ssRNA)
RNA: GGGAGUUCUACAGUCCGACGAUCACUAAAAUGCAUUCCAUUCCUCUGAAAGCAAAACAAAUUCAUAAUUGAGUGAUAUUAAAUAGAGAGGUUUUCGGAAGCAGAUCUGUGAAUAUGAAAUACAUGUGCAUAUUUCAUUCCCCACAACAGAGGAUUGAGCAUCA
B19: chr21:14371318:14371404:-|3pUTR|ENSG00000155304|msi1_unk|total|mutant (ssRNA)
RNA: GGGAGUUCUACAGUCCGACGAUCUAUGAAUAACAAUCUGAAGUCUUUUCAUAAAAAAAAUUAAUAAACUUCCGUUGUACAUUCCGCCAGUGUUAUUUGAAGUAUGUAACUUUUAAAAUAUUAAGUGUCUUGUAUGAUCCGAAUCAACAGAGGAUUGAGCAUCA
B20: chr11:69653362:69653473:+|3pUTR|ENSG00000110092|msi1_unk|FALSE|overlapping (ssRNA)
RNA: GGGAGUUCUACAGUCCGACGAUCACUGCCAUGUACUAGUUUUAGUUUUCUCUUAGAACAUUGUAUUACAGAUGCCUUUUUUGUAGUUUUUUUUUUUUUUAUGUGAUCAAUUUUGACUUAAUGUGAUUACUGCUCUAUUCCAAACAACAGAGGAUUGAGCAUCA
B21: chrX:80717640:80717741:-|CDS|ENSG00000165288|msi1|total|mutant (ssRNA)
RNA: GGGAGUUCUACAGUCCGACGAUCCUGAGAAGUCCAAACAUGGACAUAUCUUCUUCCCCAAACAUCAGGCUUCGAAGACACCGCCGUCAAAUUGAAGGUGUCCGACAAAUGCAUAACAAUGCUCCUCGGAGCCAGAUGGCCACUCAACAGAGGAUUGAGCAUCA
B22: chr5:76733371:76733472:+|CDS|ENSG00000181104|msi1|total|mutant (ssRNA)
RNA: GGGAGUUCUACAGUCCGACGAUCGAUCCCAGCAGUUAUAACAGCAGUGGGCAGUUGAUGGCAAGUAAAAUGGAUACCUGCUCCCGUAACCUGAAUAACAGCAUAUACAAAAAGCUGUUAACUCCGGAAAAGGGACUGCUGGGACAACAGAGGAUUGAGCAUCA

This is one part of the list.

The assay concerns the target MSI1 full-length (mouse, UniProt Q61474 1-362). Description: nsRBNS (natural sequence RNA bind-n-seq); RBNS binding buffer (assumed for nsRBNS): 25 mM Tris pH 7.5, 150 mM KCl, 3 mM MgCl2, 0.01% Triton X-100, 500 ug/ml BSA, 20 U/ml SUPERase-In, 4 C; UNK is unkempt and MSI1 is Musashi-1; names of the RNAs are library labels; protein concentration not given here; high values mean tight binding.
Sequence of UniProt Q61474 (Q61474 whole entry): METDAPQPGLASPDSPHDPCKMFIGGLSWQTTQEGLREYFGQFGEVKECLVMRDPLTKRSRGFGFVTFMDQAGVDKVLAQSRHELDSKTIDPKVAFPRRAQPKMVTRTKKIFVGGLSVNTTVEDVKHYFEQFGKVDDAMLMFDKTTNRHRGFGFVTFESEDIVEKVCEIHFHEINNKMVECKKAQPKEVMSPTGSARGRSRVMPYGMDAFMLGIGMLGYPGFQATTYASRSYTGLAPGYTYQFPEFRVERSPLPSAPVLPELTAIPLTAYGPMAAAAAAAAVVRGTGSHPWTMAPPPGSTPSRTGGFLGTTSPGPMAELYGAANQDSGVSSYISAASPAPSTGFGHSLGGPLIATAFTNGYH
For B1, the binding signal was 0.297 enrichment R. Regarding B2, the binding signal worked out at 0.326 enrichment R.

As to B3, the binding signal worked out at 0.588 enrichment R.

Molecule B4 registered a binding signal of 0.737 enrichment R.

B5 gave a binding signal of 0.43 enrichment R. The value for B6 was 0.354 enrichment R; that for B7 was 0.693 enrichment R; that for B8 was 0.312 enrichment R. Then B9, with 1.32 enrichment R; and B10, with 0.239 enrichment R.

The molecule B11 showed a binding signal of 0.396 enrichment R. For B12, the binding signal is 0.603 enrichment R. The value for B13 was 0.54 enrichment R. Molecule B14 yielded a binding signal of 0.313 enrichment R. As to B15, the binding signal turned out to be 1.7 enrichment R. Then B16, with 0.53 enrichment R; and B17, with 0.516 enrichment R; and B18, with 0.594 enrichment R. Then B19, with 5.04 enrichment R; and B20, with 32.9 enrichment R. Then B21, with 0.278 enrichment R.

Turning to B22, the binding signal is 0.352 enrichment R.
